Assay results taken from ChEMBL document CHEMBL1157539, “Thousands of chemical starting points for antimalarial lead identification” (Nature, 2010).
The full ranking holds about 13,000 compounds; the median of “IFI” is about 4, and the highest 2% start at about 17. This is one part of the list.

Assay: GSK_TCMDC: Inhibition Frequency Index (IFI). The number of non-kinase HTS assays where a compound showed > 50 % inhibition, expressed as a percentage of the number of such assays in which the compound was tested (-0 is zero)
Format: functional

Row | Structure (SMILES) | IFI [%]
1 | CNc1ccc(CNCc2cccc(-c3ccc(-c4nc5ccccc5[nH]4)cc3)c2)cc1 | 9
2 | O=C(/C=C/c1ccc(Cl)c(Cl)c1)NC1CCN(Cc2ccc(O)cc2)C1 (stereo not given) | 3.47
3 | COc1cc2ncnc(Nc3ccc(OCc4ccccc4)c(I)c3)c2cc1OC | 2.34
4 | COc1cccc(-c2cc(C(=O)Nc3cc(Oc4ccc(O)cc4)cc([N+](=O)[O-])c3)on2)c1 | 2.99
5 | CC(O)C(C)(CO)NCc1ccc2c3c(cccc13)-c1ccccc1-2 (stereo not given) | 7.3
6 | FC(F)(F)c1cccc(CNCC2CCN(Cc3ccc4c(c3)OCO4)CC2)c1 | 2.04
7 | CCc1cccc(NC(=O)c2ccc(CN3CCCN(CC4CCCCC4)CC3)cc2)c1 | 9.45
8 | Cc1nc(NC(=N)N)nc2cc3c(cc12)CCC3 | 4.14
9 | Oc1ccccc1CNCc1ccc(-c2cnc(N3CCCC(c4ccccc4)C3)nc2)cc1 (stereo not given) | 5.88
10 | COc1ccc(NC(=O)[C@H](CC(C)C)Nc2ccnc(Nc3ccccc3)n2)cc1 | 6.82
11 | CSc1ccccc1NC(=S)NC1CCN(CCCCCNC(=O)/C=C/c2ccc(Cl)c(Cl)c2)CC1 | 8.45
12 | Cc1cccc2nc(-c3ccc(-c4cccc(CNCCCNS(C)(=O)=O)c4)cc3)[nH]c12 | 1
13 | CCn1c(Cc2ccccc2)nnc1Sc1ccc([N+](=O)[O-])c(C#N)c1 | 2.05
14 | O=C(NC1CCCCC1)N(Cc1ccccc1-c1ccc(CNCCc2ccccc2)cc1)C1CCN(Cc2ccccc2)CC1 | 6.52
15 | COc1ccc(S(=O)(=O)N2CCCC(C)C2)cc1N1CCN(C(=O)c2ccc([N+](=O)[O-])o2)CC1 (stereo not given) | 5.13
16 | CCOc1ccc(Br)cc1/C=C/C(=O)Nc1ccc2c(c1)CN(C)CCC2 | 8.93
17 | O=C(Nc1ccc2c(c1)CCC2)c1cccc(CN2CCCN(Cc3cccc(O)c3)CC2)c1 | 2.8
18 | COc1ccc(Nc2nc(C)cc(NC3CCCC3)n2)cc1 | 16.2
19 | Cc1c(CNCCCNc2nc3ccncc3[nH]2)sc(Br)c1Br | 1.5
20 | O=C(/C=C/c1ccc(F)c(Br)c1)NCCCCCN1CCC(c2c[nH]c3ccccc23)CC1 | 9.49
21 | O=S(=O)(Nc1cccc(CCN2CCC(N3CCCCC3)CC2)c1)c1ccc(Oc2ccccc2)cc1 | 11.1
22 | O=C(c1cc2cccc([N+](=O)[O-])c2[nH]1)N1CCC(CCN2CCC(c3c[nH]c4ccccc34)CC2)CC1 | 8.03
23 | CC(C)(CNC(=O)C1CCN(CCOc2ccc(F)c(F)c2)CC1)c1nc(-c2ccc(Cl)c(O)c2)c(-c2ccncc2)[nH]1 | 5.07
24 | CC[C@H](C)CNC(=O)c1ccnc(-c2ccc(CNC3Cc4ccccc4C3)cc2)c1 | 7.46
25 | CNc1ccc(CNCc2cccc(-c3ccc(-c4nc5ccccc5[nH]4)s3)c2)cc1 | 9.71
